The supplement of paper PMC4723716
Over roughly 3,600 compounds, “viability index relative to DMSO control” has its median near 0.81; the lowest 2% begin near 0.13. This is one part of the list.

Tested on: Plasmodium falciparum NF54 stage V gametocytes
Experiment: viability index relative to DMSO control (fraction); higher = less gametocyte killing
Conditions: 1.25 µM, incubation time: 72 h
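Also: 384-well serum-free SaLSSA: MitoTracker Red CMXRos staining with saponin lysis, high-content imaging, treated-well particle count divided by plate-mean count of DMSO wells.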

SMILES	viability index
COc1ccc(C2=C(Nc3ccc(C)c(C)c3)c3ccccc3C2=O)cc1	0.647
Clc1ccccc1C(c1ccccc1)(c1ccccc1)n1ccnc1	0.979
CN(C)c1ccc(C2Nc3ccccc3NC3=C2C(=O)CC(C)(C)C3)cc1 (stereo not drawn)	1.09
O=[N+]([O-])c1ccc(N2CCN(c3nc(NCCc4c[nH]c5ccccc45)c4ccccc4n3)CC2)cc1	0.763
Cc1cc(C=C2SC(=Nc3ccccc3)N(C3CCCCC3)C2=O)c(C)n1-c1ccc(F)cc1	0.606
CCCOC(=O)C1=C(C)NC2=C(C(=O)CC(c3ccc(OC)c(OC)c3)C2)C1c1ccc(Br)cc1 (stereo not drawn)	0.421
O=C(CCl)Nc1ccc(OC(F)F)cc1	0.533
CCCCOc1cccc(NC(=O)CSC2=C(C#N)C(c3ccccc3)C(C(=O)Nc3ccccc3)=C(C)N2)c1 (stereo not drawn)	0.5
CCOc1cc(C=NN=C(N)N)ccc1OCc1ccccc1	0.404
COc1ccc(CCNc2ncnc3c2[nH]c2ccccc23)cc1	0.547
CC1Cc2ccc(F)cc2CN1C(=O)c1ccc(COc2ccccc2Br)o1 (stereo not drawn)	0.842
O=C(NC(C(=O)c1ccccc1)N1CCCCC1)c1ccco1 (stereo not drawn)	0.946
CCN(CC)CCCC(C)Nc1nc(C=Cc2ccccc2OC)nc2cc(Cl)ccc12 (stereo not drawn)	0.712
CCN1C(=CC=CC2=[N+](C)c3ccc(C)cc3C2(C)C)C=Cc2ccccc21	0.359
CCOC(=O)C1=C(C)NC2=C(C(=O)C(C(=O)OC)C(C)C2)C1c1cc(Br)c(OCC)c(OC)c1 (stereo not drawn)	0.534
COc1ccc2sc(Nc3nc(-c4ccccn4)cs3)nc2c1	0.876
Cn1cnnc1SCC(=O)Nc1ccccc1C(F)(F)F	0.743
COC(=O)C1=C(C)NC2=C(C(=O)CC(c3ccccc3Cl)C2)C1c1ccc([N+](=O)[O-])cc1 (stereo not drawn)	0.302
Cc1c2ccccc2cc(Cc2ccccc2)[n+]1C	0.76
CC1(C)C(=O)C2(CCCCC2)C(=O)OC1C=Cc1ccccc1 (stereo not drawn)	0.596

SMILES	viability index
COc1cccc(-c2ccc(O)c(CNC(C)c3cccc4ccccc34)c2)n1 (stereo not drawn)	0.519
CCN(C(C)=O)C1=C(N2CCOCC2)C(=O)c2ccccc2C1=O	0.538
COc1cc(C=NNC(=O)c2ccco2)ccc1OCc1ccc([N+](=O)[O-])cc1	0.992
COC(=O)c1cnn(-c2ccccc2)c1C=NOC(=O)c1ccccc1	0.975
CCN1C(=Cc2cccc[n+]2C)C=Cc2ccccc21	1.01
Cc1cn2c3ccccc3n(CCN3CCOCC3)c2n1	0.76
N#Cc1ccc(-c2cnc(N)c(-c3ccc(C(N)=O)cc3)n2)cc1	0.232
CCOC(=O)C1=C(C)N=c2sc(=Cc3cc(Cl)ccc3O)c(=O)n2C1c1ccc2c(c1)OCO2 (stereo not drawn)	0.764
N#CC(=Cc1ccccc1OCc1ccc(Cl)cc1Cl)c1nc2ccccc2[nH]1	0.521
Cc1c(Cl)cccc1NCC(=O)NN=C1CCCC1	0.779
N#Cc1cc2[nH]c3ccccc3c2n(-c2ccc([N+](=O)[O-])cc2)c1=N	0.838
COc1ccc(-c2c[n+](CC(=O)c3ccccc3)c3n2CCC3)cc1	0.951
CCOC(=O)c1nnn(-c2nonc2N)c1-c1ccc(Br)cc1	0.676
CCOC(=O)N1CCC(N2C(=O)c3ccccc3C2Nc2ccc(OCC)cc2)CC1 (stereo not drawn)	0.988
COc1ccc(NC(=O)CN2CCN(S(=O)(=O)c3cccc([N+](=O)[O-])c3)CC2)c(OC)c1	0.909
COC(=O)C1=C(C)NC(=Cc2cc(C)n(-c3ccc(Cl)c(Cl)c3)c2C)C1=O	0.812
CCN(C(=O)CSc1nc(-c2ccc(C(C)C)cc2)no1)c1cccc(C)c1	0.699
COC(=O)c1c(OCc2ccc(F)cc2)cc(=O)n2c1CCN(Cc1ccccc1)CC2	1.12
COc1ccc2oc(=O)c(C(=O)N(C)c3ccc(S(N)(=O)=O)cc3)cc2c1	0.906
COc1ccc(C=NN=C2NC(=O)C(CC(=O)Nc3ccccc3)S2)cc1OC (stereo not drawn)	0.898

SMILES	viability index
Oc1ccc(C2Nc3ccc4ccccc4c3C3C=CCC32)cc1 (stereo not drawn)	0.808
C=CCOC(=O)C1=C(C)N2CCSC2=C(C#N)C1c1ccco1 (stereo not drawn)	1.13
CC(C)(C)NCC(O)Cn1c2ccc(Br)cc2c2cc(Br)ccc21 (stereo not drawn)	0.647
COc1ccc(C2Nc3ccc([N+](=O)[O-])cc3C3C=CCC32)cc1[N+](=O)[O-] (stereo not drawn)	0.649
O=C(NN=Cc1cccc(Cl)c1)C1COc2ccccc2O1 (stereo not drawn)	0.928
O=C(NCc1ccco1)C1CCN(S(=O)(=O)c2ccc(Cl)cc2)CC1	0.796
Cc1ccc2nc(Cl)c3cc(C(=O)Nc4ccc(CN5CCC(C)CC5)cc4)sc3c2c1	0.795
Clc1ccc2c(c1)CN(C1CCCCC1)CO2	0.988
COC(=O)c1ccc(NC(=O)CSc2nc3cc4c(cc3cc2C#N)OCCO4)cc1	0.753
Cn1nc(C(F)(F)F)c(-c2ccc(Br)cc2)c1NC(=O)Nc1ccc(F)cc1F	0.772
CCC(=O)N(C)CCCNc1ccnc2cc(Cl)ccc12	0.69
CCOC(=O)c1ccc(-n2c(C)cc(C=C3SC(=Nc4ccc(Cl)cc4)NC3=O)c2C)cc1	0.88
OC(CNCC1CCCO1)Cn1c2ccc(Br)cc2c2cc(Br)ccc21 (stereo not drawn)	0.409
Fc1ccc(Nc2nc(OC(C(F)(F)F)C(F)(F)F)nc(OC(C(F)(F)F)C(F)(F)F)n2)cc1	0.776
CCOc1cc(C2CC(=O)NC3=C2C(=O)CC(c2ccc(OC)cc2)C3)cc(Cl)c1O (stereo not drawn)	1
CC(=O)Nc1ccc(NC2=C(N3CCCCC3)C(=O)c3ccccc3C2=O)cc1	0.355
CCOC(=O)C1=C(C)NC2=C(C(=O)CC(C)(C)C2)C1c1cc(I)sc1SC (stereo not drawn)	1.04
Cc1ccc(-c2nnc(Nc3ccc(F)cc3)c3ccccc23)cc1S(=O)(=O)NCC1CCCO1 (stereo not drawn)	1.01
